PubChem BioAssay AID493208 (National Center for Advancing Translational Sciences (NCATS), 2011)
The campaign covered roughly 44,000 compounds. About 340 (0.77%) were called active. Roughly 5% stayed inconclusive and do not appear here. The call rests on the fitted dose curve; in most records, active means well fitted inhibition curve with a large enough effect; inconclusive means small, poorly fitted or top-dose-only effect; inactive means flat fitted curve, though single readings scatter. The list shows a part of the results.

experiment: Acumen qHTS Assay for Inhibitors of the mTORC1 Signaling Pathway in MEF (Tsc2-/-, p53-/-) Cells: Sytravon; settings: phospho-rpS6 immunofluorescence/PI, 24 h; series mostly up to 38.3 µM; activity change, negative = inhibition: at the top concentration;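 further: plate controls were DMSO for no effect and rapamycin for full effect; nearly all actives have a fitted effect of over 50% in size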
Outline: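 Compounds act on Tsc2-/-, p53-/- fibroblasts carrying an empty vector for 24 h before fixation and dual staining for phospho-S6 and DNA (propidium iodide). Values are percentages of cells above a rapamycin-defined pS6/PI threshold.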

Activity change, negative = inhibition, inactive:
CCOC(=O)c1ccccc1NC(=O)CSc1cn(CC(=O)N2CCCCC2)c2ccccc12 -17.9%
COc1cccc(CNC(=O)C2CCCN(S(=O)(=O)c3ccc4c(ccn4C)c3)C2)c1 (configuration not stated) -5.09%
Cc1nc2c(-c3ccccc3)c(C)nn2c(C)c1CCC(=O)NC(C)c1ccccc1 (configuration not stated) -23.4%
COc1ccc(NC(=O)CC2C(=O)N(c3ccc(F)cc3)C(=O)N2Cc2cccnc2)cc1 (configuration not stated) -1.3%
CCOC(=O)c1cccc(NC(=O)c2oc3c(c2C)-c2[nH]ncc2CC3)c1 -8.88%
CCCN(C(=O)c1cc2c(s1)-c1ccccc1OC2)c1ccccc1F -1.11%
CCC(C(=O)Nc1ccc(C(=O)OC)cc1)n1c(=O)c(-c2ccccc2NC(C)=O)nc2ccccc21 (configuration not stated) -9.53%
CCc1ccccc1NS(=O)(=O)c1ccc2[nH]cc(C(=O)N3CCCCC3)c(=O)c2c1 4.97%
COc1cc(CN(C(=O)Nc2ccccc2)c2ccccn2)cc(OC)c1OC -0.667%
COc1ccc(Cl)cc1NC(=O)c1ccc2nc(Cc3ccccc3)oc2c1 4.75%
CCCC(=O)Nc1cc(C)c(O)c(-c2nc3ncccc3o2)c1 0.968%
Cc1ccc(-n2nc(C(=O)N3CCN(c4cc(Cl)ccc4C)CC3)c(=O)n(C)c2=O)cc1 -6.34%
CCc1ccc(C(=O)c2cn(CC(=O)Nc3ccc(F)c(F)c3)c3cc(OC)c(OC)cc3c2=O)cc1 3.6%
CCCCNC(=O)C1CCCN(Cc2nc(-c3ccc(Cl)cc3)oc2C)C1 (configuration not stated) -10.6%
COc1cc(NC(=O)CCn2c(-c3ccccc3)cc(C(C)=O)c2C)cc(OC)c1 -0.645%
Cc1cc(C)c(NC(=O)CSc2ccnc(=O)[nH]2)c(C)c1 -0.0925%
COc1ccc(NC(=O)C(NS(=O)(=O)c2ccc3c(c2)CCCC(=O)N3)C(C)C)c(OC)c1 (configuration not stated) 3%
Cc1cccc(CNC(=O)c2oc3c(c2C)-c2nn(Cc4ccccc4Cl)cc2CC3)c1 -3.17%
Cc1c(Cl)cccc1NC(=O)CSc1ncnc2c1sc1ccccc12 7.42%
Cc1cc(OCC(=O)Nc2ccc(-c3nc4cc(Cl)ccc4o3)cc2)cc(C)c1Cl 4.4%
CCc1ccc(C2CC(=O)c3c([nH]c(C(=O)OCC4CCCCC4)c3C)C2)cc1 (configuration not stated) -3.62%
O=C(COc1ccccc1)NCc1ccc2c(c1)CCN2C(=O)c1ccc(F)cc1 -10.6%
CCOc1ccc(NC(=O)C(=O)NCCc2csc(-c3ccc(F)cc3)n2)cc1 0.0539%
CCc1cccc(NC(=O)Nc2ccc3c(c2)N(C)C(=O)c2ccccc2S3)c1 -10.3%
c1ccc(-n2ncc3c(NC4CCCC4)ncnc32)cc1 0%
COc1ccc(NS(=O)(=O)c2cc3[nH]c(=O)c(=O)[nH]c3cc2C)cc1Cl -0.75%
Cn1cc(S(=O)(=O)N2CCCCCC2)cc1C(=O)N1CCN(c2ccc(F)cc2)CC1 2.15%
CCC(=O)N1CCc2cc(Br)cc(S(=O)(=O)CCC(=O)NCCc3ccc(OC)c(OC)c3)c21 0%
CCOc1ccc(/C=C/c2nc(C#N)c(N3CCN(c4ccc(OC)cc4)CC3)o2)cc1 2.95%
Cc1ccc(NC(=O)Cc2c(C(=O)O)c(C)cn2C)cc1Cl -1.8%
CC(C)OCCCn1c(SCc2ccccc2C#N)nc2c(sc3ccccc32)c1=O -0.155%
CN(C(=O)C1CCCN(c2ncnc3c2nc2n3CCCCC2)C1)c1ccccc1F (configuration not stated) 0.191%
CCN(CC)CC(C)CNC(=O)CN1C(=O)CSc2ccc(S(=O)(=O)N3CCOCC3)cc21 (configuration not stated) -9.19%
COc1cc(OC)c(NC(=O)CN2C(=O)CCn3nc(-c4cccn4C)cc32)cc1Cl -1.23%
CC(C)c1ccc(S(=O)(=O)c2nnn3c2nc(NCCc2ccccc2)c2sccc23)cc1 -8.14%
CC(CCc1ccccc1)NC(=O)Cn1ncc2c3ccccc3n(Cc3ccc(F)cc3)c2c1=O (configuration not stated) 0.498%
CCCn1c(=O)c2sccc2n2c(CCCC(=O)NCCc3ccc(Cl)cc3)nnc12 1.52%
Cc1ccc(CNC(=O)c2cc3sccc3n2Cc2ccc(Cl)cc2)cc1 -0.894%
CC(=O)Nc1ccc(S(=O)(=O)NCC2CCC(C(=O)NCCc3ccccc3)CC2)cc1 (configuration not stated) -2.04%
Cc1nn(C(=O)c2cccc([N+](=O)[O-])c2C)c(C)c1S(=O)(=O)N1CCOCC1 -4.51%
Cc1ccc(NC(=O)CC(C)S(=O)(=O)c2ccc3c(c2)NC(=O)CO3)c(C)c1 (configuration not stated) -8.66%
COc1cc(-c2ccno2)ccc1S(=O)(=O)N1CCN(c2cc(C)ccc2C)CC1 -0.874%
COCC(=O)Oc1c(Sc2ccc(C)cc2)c(C)nn1C(C)(C)C 5.09%
COc1cccc(N2CC(NC(=O)C(c3ccccc3)c3ccccc3)CC2=O)c1 (configuration not stated) -0.908%
Cc1nc2nncn2c(N2CCN(c3ccccc3)CC2)c1C 3.32%
COc1ccccc1/C=C/c1nc(C#N)c(N2CCCCC2)o1 -21.9%
Cc1ccc2nc(-c3ccsc3)c(Nc3ccccc3C)n2c1 -25.3%
O=C(NCc1ccc(F)cc1)c1ccc(CSCc2cccc(Cl)c2)o1 -2.85%
COCCNC(=O)Cc1ccc(NC(=O)N2CCCCc3ccccc32)cc1 0%
Cn1cc(CN(C(=O)Nc2ccc(Cl)c(Cl)c2)C2CCCCC2)c2ccccc21 -8.76%
COc1ccc(-n2c(/C=C/c3ccccc3F)nc3cc(OC)c(OC)cc3c2=O)cc1Cl 4.59%
Cc1ccccc1Cn1c(C(=O)O)c(CNCc2cccc(F)c2)c2ccccc21 3.21%
COC(=O)c1scc(-c2ccccc2)c1S(=O)(=O)Nc1ccccc1 -16.4%
Cc1ccc(N2CC(NC(=O)/C=C\c3ccc4c(c3)OCO4)CC2=O)cc1C (configuration not stated) -2.06%
O=C1c2ccccc2C(=O)C1(c1ccccc1)N1CCN(c2cccc(Cl)c2)CC1 -0.126%
CCN(CC)C(=O)C1CCN(S(=O)(=O)c2ccc3c(c2)CCCN3C(C)=O)CC1 -1.5%
Cc1ccc(-c2cc(C(F)(F)F)n3nc(C(=O)Nc4ccc(Cl)cc4Cl)cc3n2)cc1 -5.66%
Cc1ccc(NC(=O)CSc2ncc3c(n2)-c2ccccc2N(Cc2cccc(F)c2)S3(=O)=O)cc1F -2.56%
CC1CN(C(=O)Nc2ccc(C(=O)NCCc3ccccc3)cc2)c2ccccc2S1 (configuration not stated) -6.13%
CCOc1cc(-c2ccc(OC(=O)c3ccccc3F)cc2)cc(=O)c2c(C)oc(C)c12 -4.39%
O=C(CSc1nccn1Cc1ccccc1)NCc1ccc(F)cc1 -1.25%
CCOc1ccc(C(=O)Nc2cc(-c3nc4ccccc4o3)ccc2C)cc1Cl -1.35%
Cc1cc(C)nc(NS(=O)(=O)c2ccc(NC(=O)COc3ccc(Cl)cc3C)cc2)n1 0.706%
CCN(Cc1ccccc1)C(=O)c1c(C)oc2ncn(C)c(=O)c12 -11.6%
COc1ccc(-n2nc3ccc(NC(=O)c4ccc(-c5cc(Cl)ccc5Cl)o4)cc3n2)cc1 1.03%
COc1ccc(-n2ccnc(NCc3ccc(Cl)cc3)c2=O)cc1 -2.28%
COc1ccc(NC(=O)CCc2nnc3n(C)c(=O)c4sccc4n23)cc1 -16.3%
C=CCc1ccccc1OCCSc1nc(-c2ccc(C(C)(C)C)cc2)nc2cc(=O)[nH]n12 -12.7%
Clc1cccc(N2CCN(c3nc4ccccc4n4cnnc34)CC2)c1 -15%
COc1cccc(NC(=O)C2CCCN(S(=O)(=O)c3c(C)[nH]c(=O)[nH]c3=O)C2)c1 (configuration not stated) 1.11%
Cc1cc(C)cc(NC(=O)CCC(=O)N2Cc3ccccc3Oc3ncccc32)c1 -3.54%
CCN(c1cc(C)cc(C)c1)S(=O)(=O)c1nnc(NC(=O)C2CCCCC2)s1 -0.818%
O=C(Nc1ccc(Br)c2cccnc12)c1cccc2ccccc12 -5.46%
Cc1c(Cl)cccc1-c1ccc(CNc2ccc3[nH]c(=O)[nH]c3c2)o1 -9.07%
Cc1ccc(CCNC(=O)c2cc3sccc3n2Cc2ccc(C)cc2)cc1 3.82%
CCCc1cnc2c(c1SCC(=O)N(C)c1ccccc1)c(=O)n(C)c(=O)n2C -6.87%
COc1cc2ccccc2cc1C(=O)Nc1ccc2oc(-c3ccc(F)cc3)nc2c1 7.03%
CCc1ccccc1NC(=O)c1nnn(-c2ccc(F)cc2)c1C -18.8%
Cc1cc(C)cc(-n2c(SCC(=O)N3CCCCC3)nc3c([nH]c4ccccc43)c2=O)c1 -8.22%
CC1CCN(S(=O)(=O)c2ccc3c(c2)oc(=O)n3CC(=O)NCc2ccc(F)cc2)CC1 -2.7%
CCOc1ccc(NC(=O)Cn2c(=O)n(Cc3ccco3)c(=O)c3oc4ccccc4c32)cc1 -3.61%
COc1ccc(NC(=O)c2oc3ccccc3c2NC(=O)c2cccc(F)c2)c(OC)c1 5.62%
Cc1ccn2c(Nc3ccccc3C)c(-c3ccccn3)nc2c1 -8%
COCCCNC(=O)C1CCCN(C(=O)c2cnn(-c3ccc(F)cc3)c2-n2cccc2)C1 (configuration not stated) 0.295%
Cc1cc(C)c(CSc2nnc(C)n3c2cc2occc23)c(C)c1 -10.9%
CCN(Cc1ccccc1)C(=O)c1nc(-c2cccc(F)c2)n2c1CCCCC2 -0.22%
O=C(NC1CCCCC1)c1cc(Nc2cccc(C(F)(F)F)c2)nc2ccccc12 -4.72%
COc1cc(C(=O)Nc2nc3nc(-c4ccccc4)cc(=O)n3[nH]2)cc(OC)c1OC -6.25%
Cc1ccn2c(=O)cc(CSc3nnc(NC(=O)c4ccccc4Cl)s3)nc2c1 -3.39%
Cc1ccc(SCc2nc(-c3ccc(C(=O)NCc4ccc(Cl)cc4)cc3)oc2C)cc1 -1.63%
COc1ccc(CNC(=O)c2cc3c(=O)[nH]c4ccccc4c3s2)cc1 0.459%
CCOC(=O)c1ccccc1NC(=O)CCOc1ccccc1 3.96%
Cc1cccc(N2CCN(C(=O)NCc3noc4ccccc34)CC2)c1C -14.4%
COc1ccccc1CNC(=O)C(=O)NCC(c1ccco1)S(=O)(=O)c1cccs1 (configuration not stated) -9.23%
O=C(NC1CCCCC1)c1cc2c(Cl)nc3ccccc3c2s1 -8.48%
CCOc1ccc(NC(=O)C(NS(=O)(=O)c2cccc3nsnc23)c2ccccc2)cc1 (configuration not stated) -21.5%
OCCCc1nc2ccccc2n1CCCCOc1ccccc1 -1.68%
